Measured values from the RNAGym collection of RNA variant scans (doi:10.1073/pnas.2313332121).
Variants at the background level are over-represented here.

B1: TPR 5TU (parent)
chain: GGAUCUUCUCGAUCUAACAAAAAAGACAAAUCUGCCACAAAGCUUGAGAGCAUCUUCGGAUGCAGAGGCGGCAGCCUUCGGUGGCGCGAUAGCGCCAACGUUCUCAACUAUGACACGCAAAACGCGUGCUCCGUUGAAUGGAGUUUAUCAUG

Variants of: B1
Experiment: polymerase ribozyme fitness, log enrichment relative to wild type (log ratio); higher = more active; in vitro selection for triplet polymerase activity
Procedure, shortened: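 Mutant libraries were PCR-built and transcribed for each subunit of a heterodimeric triplet polymerase ribozyme and selected for one round in triplicate at −7 °C, frozen, before gel excision of extended constructs and streptavidin-bead capture. Input and output libraries were Illumina-sequenced, keeping genotypes with ≥10 input reads and ≥1 read per output. Fitness is a logarithmic ratio of genotype to wild-type enrichment, in base 2, using inverse-variance-weighted replicate averages.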

Variant | polymerase ribozyme fitness (log ratio)
GGAUCUUCUCGAUCUAACAAAAAAGACAAAUCUGCCACAAAGCUUGAGAGCAUCUUCGGAUGCAGAGGCGGCAGCCUUCGGUGGCGCGAUAGCGCCAACGUUCUCAACUAUGACACGCAGAACGCGUGCUCCGUUGCAUGGAGUUUAUCAUG [A120G A137C] | -4.08
GGAUCUUCUCGAUCUAACAAAAAAGACAAAUCUGCCACAAAGCUUGAGAGCAUCUUCGGAUGCAGAGGCGGCAGCCUUCGGUGGCGCGAUAGCGCCAACGUUCUCAACUAUGACACGCACAACGCGUGCUCCGUUGAAAGGAGUUUAACAUG [A120C U139A U148A] | ≤ -4.2
GGAUCUUCUCGAUCUAACAAAAAAGACAAAUCUGCCACAAAGCUUGAGAGCAUCUUCGGAUGCAGAGGCGGCAGCCUUCGGUGGCGCGAUAGCGCCAACGUUCUCAACUAUGACACGCAGAACGCGUGCUCCGUUGAAUGAAGUUUAUCAUG [A120G G141A] | 1.23
GGAUCUUCUCGAUCUAACAAAAAAGACAAAUCUGCCACAAAGCUUGAGAGCAUCUUCGGAUGCAGAGGCGGCAGCCUUCGGUGGCGCGAUAGCGCCAACGUUCUCAACUAUGACACGCAGAACGCGUGCUCCGUGGAAUGGAGUUGAUCAUG [A120G U135G U146G] | ≤ -4.2
GGAUCUUCUCGAUCUAACAAAAAAGACAAAUCUGCCACAAAGCUUGAGAGCAUCUUCGGAUGCAGAGGCGGCAGCCUUCGGUGGCGCGAUAGCGCCAACGUUCUCAACUAUGACACGCAACACGCGUGCUCCGUUGAAUGGAGUUUAUCAGG [A121C U151G] | ≤ -4.2
GGAUCUUCUCGAUCUAACAAAAAAGACAAAUCUGCCACAAAGCUUGAGAGCAUCUUCGGAUGCAGAGGCGGCAGCCUUCGGUGGCGCGAUAGCGCCAACGUUCUCAACUAUGACACGCAUUACGCGUGCUCCGUUGAAUGGAGGUUAUGAUG [A120U A121U U144G C149G] | -3.46
GGAUCUUCUCGAUCUAACAAAAAAGACAAAUCUGCCACAAAGCUUGAGAGCAUCUUCGGAUGCAGAGGCGGCAGCCUUCGGUGGCGCGAUAGCGCCAACGUUCUCAACUAUGACACGCUAAACGCAUGCUCCGUCGAAUGCAGUUUAUCAUG [A119U G126A U135C G141C] | -3.75
GGAUCUUCUCGAUCUAACAAAAAAGACAAAUCUGCCACAAAGCUUGAGAGCAUCUUCGGAUGCAGAGGCGGCAGCCUUCGGUGGCGCGAUAGCGCCAACGUUCUCAACUAUGACACGCUAAACGCGUGCUCCGUUGAACGGAGUUUAUCAUG [A119U U139C] | -3.94
GGAUCUUCUCGAUCUAACAAAAAAGACAAAUCUGCCACAAAGCUUGAGAGCAUCUUCGGAUGCAGAGGCGGCAGCCUUCGGUGGCGCGAUAGCGCCAACGUUCUCAACUAUGACACGCACAACGCGUGCUCCGUUGAAUGCAGUUUAUCAUG [A120C G141C] | -0.144
GGAUCUUCUCGAUCUAACAAAAAAGACAAAUCUGCCACAAAGCUUGAGAGCAUCUUCGGAUGCAGAGGCGGCAGCCUUCGGUGGCGCGAUAGCGCCAACGUUCUCAACUAUGACACGCAACAAGCGCGCUCCGUUGAAUGGAGUUUAUCAUG [A121C C123A U127C] | -1.91
GGAUCUUCUCGAUCUAACAAAAAAGACAAAUCUGCCACAAAGCUUGAGAGCAUCUUCGGAUGCAGAGGCGGCAGCCUUCGGUGGCGCGAUAGCGCCAACGUUCUCAACUAUGACACGCAACACGCGUGCUCCGUUGUAUGGAGUUUGUCAUG [A121C A137U A147G] | ≤ -4.2
GGAUCUUCUCGAUCUAACAAAAAAGACAAAUCUGCCACAAAGCUUGAGAGCAUCUUCGGAUGCAGAGGCGGCAGCCUUCGGUGGCGCGAUAGCGCCAACGUUCUCAACUAUGACACGCAGAACGCGUUCUCCGUUGAAUGGAGUUUAUCAUG [A120G G128U] | -2.36
GGAUCUUCUCGAUCUAACAAAAAAGACAAAUCUGCCACAAAGCUUGAGAGCAUCUUCGGAUGCAGAGGCGGCAGCCUUCGGUGGCGCGAUAGCGCCAACGUUCUCAACUAUGACACGCUAAACGCGUGCUCCCUUGGAUUGAGGUUAUCAUG [A119U G133C A137G G140U U144G] | ≤ -4.2
GGAUCUUCUCGAUCUAACAAAAAAGACAAAUCUGCCACAAAGCUUGAGAGCAUCUUCGGAUGCAGAGGCGGCAGCCUUCGGUGGCGCGAUAGCGCCAACGUUCUCAACUAUGACACGCUAAACGCAUGCUCCGUUGAAUGGAGUUUAUCAUG [A119U G126A] | 0.174
GGAUCUUCUCGAUCUAACAAAAAAGACAAAUCUGCCACAAAGCUUGAGAGCAUCUUCGGAUGCAGAGGCGGCAGCCUUCGGUGGCGCGAUAGCGCCAACGUUCUCAACUAUGACACGCGAAACGCGUGCUCCGUUGAAUGGAGUUUAUCAUG [A119G] | -0.045
GGAUCUUCUCGAUCUAACAAAAAAGACAAAUCUGCCACAAAGCUUGAGAGCAUCUUCGGAUGCAGAGGCGGCAGCCUUCGGUGGCGCGAUAGCGCCAACGUUCUCAACUAUGACACGCUAAACGCGUGCUCCGUUGAAUGGAGUUUAUCAUG [A119U] | -0.546
GGAUCUUCUCGAUCUAACAAAAAAGACAAAUCUGCCACAAAGCUUGAGAGCAUCUUCGGAUGCAGAGGCGGCAGCCUUCGGUGGCGCGAUAGCGCCAACGUUCUCAACUAUGACACGCAUAACGCGUGCUCCGUUGCUUGGAGUUUAUCAUG [A120U A137C A138U] | -4.19
GGAUCUUCUCGAUCUAACAAAAAAGACAAAUCUGCCACAAAGCUUGAGAGCAUCUUCGGAUGCAGAGGCGGCAGCCUUCGGUGGCGCGAUAGCGCCAACGUUCUCAACUAUGACACGCAAGCCGCGUGCUCCGUUGCAUGGAGUUUAUCAUG [A121G A122C A137C] | -4.06
GGAUCUUCUCGAUCUAACAAAAAAGACAAAUCUGCCACAAAGCUUGAGAGCAUCUUCGGAUGCAGAGGCGGCAGCCUUCGGUGGCGCGAUAGCGCCAACGUUCUCAACUAUGACACGCAAGACGCGUGCUCCGUAGAAUGGAGUUUAUCAUG [A121G U135A] | -0.777
